Measured values as given in PubChem BioAssay AID445 (National Center for Advancing Translational Sciences (NCATS), 2006).
The campaign covered roughly 110,000 compounds. About 40 (0.04%) were called active. The shares of active, inactive and inconclusive entries below differ from those in the screen. Calls follow the shape of the dose curve; as a rule, active = well fitted curve in the direction sought with a large enough effect in the signal ratio (not every such curve was filed as active); inconclusive = small, poorly fitted or top-dose-only effect, or a change in a side signal; inactive = flat fitted curve, though single readings scatter; the % refers to the signal ratio. Potencies of inconclusive entries are doubtful fits and often do not repeat.

Experiment: IkB Signaling;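 as to IkBa stabilization activation: 0% = basal untreated cells and 100% = reference inhibitor full response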
Details: ABC-DLBCL IkBa-CBG/CBR dual luciferase ratio (green luciferase fused to IkBa over red control in OCI-Ly3 lymphoma cells), 4 h; IkBa stabilization activation: at 57.1 µM (top of the series), scaled: untreated 0%, proteasome inhibitor 100% unless noted
Procedure, shortened: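 In this assay, an IκBα–CBG68 fusion accumulates when IKK-driven degradation is blocked; native CBR normalizes for cell number. OCI-Ly3 cells were treated 4 h with compound and doxycycline, then green and red light read after Chroma-Glo addition.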
Potency is read from the fitted curve at half-maximal effect.

Structure (SMILES) | IkBa stabilization activation | Potency
COCCN(C(=O)Cn1nnc2ccccc21)C(C(=O)NC1CCCC1)c1cc(OC)ccc1OC (stereo not drawn) | inactive | 
CCOC(=O)Cc1csc(NC(=O)COc2ccccc2)n1 | inactive | 
Cc1nnc2c3ccccc3nc(Nc3cccc(O)c3)n12 | inconclusive: 2.01% [signal inhibitor] | 
CCCCOC(=O)c1ccc(Nc2nnc(-n3nc(C)cc3C)c3ccccc23)cc1 |  | inconclusive: 2.51 µM [signal inhibitor]
O=C(NC1CC(=O)N(c2ccc(Cl)cc2)C1)c1ccc(S(=O)(=O)N2CCOCC2)cc1 (stereo not drawn) | inconclusive: -1.36% [signal activator] | 
CCOC(=O)c1ccc(NC(=O)c2nc(SCc3ccccc3F)ncc2Cl)cc1 | inactive | 
COc1ccc(-c2noc(CSc3nc(N)cc(=O)[nH]3)n2)cc1OC | inactive | 
O=C(Nc1ccc2c(c1)OCO2)C1CCCN(S(=O)(=O)c2cccs2)C1 (stereo not drawn) | inconclusive: 2.91% [signal inhibitor] | 
COc1ccc(CCNc2oc(-c3ccccc3OC)nc2C#N)cc1 | inconclusive: -1.27% [signal inhibitor] | 
Cc1ccc(Cl)cc1NC(=O)C1CCN(c2nc3ccccc3n3cccc23)CC1 | inconclusive: 0.579% [signal inhibitor] | 
COc1cccc(-c2cc(C(=O)N3CCN(Cc4ccccc4)CC3)no2)c1 | inconclusive: 6.23% [signal inhibitor] | 
COCCn1c(=O)c(-c2ccc(OC)cc2)nc2cnc(Oc3ccccc3)nc21 | inactive: -1.75% [at 11.4 µM, scaled: untreated 0%, proteasome inhibitor 100%] | 
COc1ccccc1-c1cc(C(=O)NC(C)c2ccccc2)no1 (stereo not drawn) |  | inconclusive: 20 µM [signal inhibitor, partial curve]
Cc1ccc(NC(=O)c2c(NC(=O)c3ccccc3)sc3c2CCC3)cc1 |  | inconclusive: 3.98 µM [signal inhibitor, full curve]
COc1ccc(-c2nc3nc(C)c(Cc4ccccc4)c(=O)n3[nH]2)cc1 |  | inconclusive: 12.6 µM [signal inhibitor, partial curve]
Cc1ccc2sc(N(Cc3cccnc3)C(=O)C3COc4ccccc4O3)nc2c1C (stereo not drawn) | inactive | 
N#CC(C(=O)C1CCCCC1)c1nc2ccccc2[nH]1 (stereo not drawn) | inconclusive: 1.77% [signal inhibitor] | 
O=C(Nc1ccc2c(c1)nc1n2CCN(Cc2ccccc2)C1)c1cccs1 | inconclusive: 11.4% [signal inhibitor] | 
O=C1CN(C(=O)c2ccc(Br)o2)C(c2ccc(F)cc2)c2cc(Cl)ccc2N1 (stereo not drawn) | inconclusive: 4.69% [signal inhibitor] | 
CC(C)Cn1c(=O)c2sccc2n2c(CCCC(=O)NC3CCCCC3)nnc12 | inconclusive: -0.805% [signal inhibitor] | 
COc1ccc(-c2nc3cnc(OC)nc3n(Cc3cccs3)c2=O)cc1 | inactive: -1.61% [at 11.4 µM, scaled: untreated 0%, proteasome inhibitor 100%] | 
CCN(CC)CCNC(=O)c1ccc(-n2c(-c3ccccc3)cc3c2CCCC3)cc1 | inconclusive: -0.183% [signal inhibitor] | 
COc1cccc(CNC(=O)CCCn2nc(C)c3c(C)n(-c4ccc(C)cc4)nc3c2=O)c1OC | inconclusive: -0.373% [signal inhibitor] | 

Structure (SMILES) | IkBa stabilization activation | Potency
CN(C)S(=O)(=O)c1ccc2c(c1)C(CC(=O)O)OC2=O (stereo not drawn) | inactive | 
Cc1cc(C)cc(NC(=O)C2CCN(S(=O)(=O)c3cccc(-c4noc(C)n4)c3)CC2)c1 | inconclusive: -0.537% [signal inhibitor] | 
O=c1cc(-c2ccccc2)oc2cc(O[C@H]3O[C@H](CO)[C@@H](O)[C@H](O)[C@@H]3O)c(O)c(O)c12 | inactive: 0.485% [at 11.4 µM, scaled: untreated 0%, proteasome inhibitor 100%] | 
CC1=Nc2cc(C(=O)NC(C)C)ccc2Sc2ccc(C)cc21 |  | inconclusive: 20 µM [signal inhibitor]
Fc1ccc(Br)cc1C1C=C(c2ccc(Br)cc2)Nc2nnnn21 (stereo not drawn) | inconclusive: 4.88% [signal inhibitor] | 
Cc1cc(-c2ccccc2)c(C#N)c(N)n1 | inactive | 
Cc1cccc(NC(=O)C(=O)NCCc2csc(-c3ccc(C(F)(F)F)cc3)n2)c1C | inactive | 
Cc1ccnc(NS(=O)(=O)c2ccc(N=[N+]=[N-])cc2)n1 | inactive: 1.64% [at 11.4 µM, scaled: untreated 0%, proteasome inhibitor 100%] | 
CCc1cccc(N2C(=O)CS(=O)(=O)C23C(=O)N(Cc2ccccc2)c2ccc(C)cc23)c1 (stereo not drawn) | inconclusive: -1.79% [signal inhibitor] | 
CN(C(=O)c1ccncc1)c1nnc(-c2ccccn2)s1 | inactive | 
CSc1ccc(CNC(=O)c2sc3ncnc(N(C)C4CCCCC4)c3c2C)cc1 | inconclusive: 1.75% [signal inhibitor] | 
CCOc1ccc(CN2C(=O)C(=O)c3cccc(C)c32)cc1OC | inactive | 
Cc1c(C(=O)Nc2ccc(F)cc2)oc2ccc(S(=O)(=O)N3CCCCCC3)cc12 | inconclusive: 1.72% [signal inhibitor] | 
Cc1cc(C(=O)Nc2nnc(C3CCCCC3)s2)no1 |  | inconclusive: 20 µM [signal inhibitor, partial curve]
CN(c1ccccc1)S(=O)(=O)c1cccc(C(=O)N2CCN(c3ccccn3)CC2)c1 | inconclusive: 5.41% [signal inhibitor] | 
CC1CCN(C(=O)COC(=O)c2n[nH]c3ccccc23)CC1 | inactive | 
O=C(CSc1nnc(COc2ccc(F)cc2)o1)N1c2ccccc2CCc2ccccc21 |  | inconclusive: 10 µM [signal inhibitor, partial curve]
Cc1cc(C)c(NC(=O)C2CCN(C(=O)N3CCOc4ccccc43)CC2)c(C)c1 |  | inconclusive: 25.1 µM [signal inhibitor, single point]
COc1cc2c(cc1NC(=O)COc1ccc(Br)cc1)oc1ccccc12 | inconclusive: 1.6% [signal inhibitor] | 
COc1ccc(-c2cc(C(F)(F)F)n3ncc(-c4ccccc4)c3n2)cc1 | inconclusive: 10.2% [signal inhibitor] | 
COC(=O)c1ccc2c(=O)n(CCc3ccc(S(N)(=O)=O)cc3)c(SCC(=O)C(C)(C)C)nc2c1 | inactive | 
O=C(Nc1ccc(Cl)cc1)N1CCC(c2nc(-c3cccs3)no2)CC1 | inconclusive: 2.84% [signal inhibitor] | 
CCN(CC)c1ccc(NC(=O)c2cc(OC)cc(OC)c2)c(C)c1 | inconclusive: 6.09% [signal inhibitor] | 

Structure (SMILES) | IkBa stabilization activation | Potency
CCCc1cc(C(=O)Nc2cc(OC)c(Cl)cc2OC)no1 | inactive | 
CCNc1ncc2ncc(=O)n(Cc3ccc(F)cc3)c2n1 | inactive: -1.14% [at 11.4 µM, scaled: untreated 0%, proteasome inhibitor 100%] | 
COCCNC(=O)c1cc2c(=O)n3cccc(C)c3nc2n(Cc2ccncc2)c1=N | inactive | 
CCCCOc1ccccc1Cn1c(=O)sc2ccccc21 | inconclusive: 9.72% [signal inhibitor] | 
COC(=O)c1ccc(N/C(C)=C/C(=O)c2ccc(C)o2)cc1 | inactive | 
CCOc1ccc(C(=O)Nc2cccc(NC(=O)c3ccc(Cl)cc3Cl)c2)cc1 |  | inconclusive: 15.8 µM [signal inhibitor]
CSc1ncc(Cl)c(C(=O)C(C#N)c2nc3c(C)cc(C)cc3c(=O)[nH]2)n1 (stereo not drawn) | inconclusive: 0.321% [signal inhibitor] | 
Cn1c(SCC(=O)Nc2nc3ccccc3s2)ncc(C(=O)Nc2ccc(Cl)cc2)c1=O | inconclusive: 5.58% [signal inhibitor] | 
COc1cccc(NC(=O)Cn2nnc(C(=O)NCc3ccc4c(c3)OCO4)c2N)c1 | inconclusive: -0.424% [signal inhibitor] | 
O=C(Nc1cccc(F)c1)N1CC[C@@]2(CCCN(C(=O)c3ccco3)C2)C1 | inactive: 2.63% [at 11.4 µM, scaled: untreated 0%, proteasome inhibitor 100%] | 
CN(C)c1ccc(NC(=O)c2cc3c(=O)n4ccccc4nc3n2C)cc1 | inactive | 
C[C@](O)(c1ccccc1)c1nccc2ccccc12 | inactive: -0.462% [at 11.4 µM, scaled: untreated 0%, proteasome inhibitor 100%] | 
N#CC1=C(c2ccccc2)N=P(N2CCOCC2)(N2CCOCC2)N=C1N1CCOCC1 | inactive | 
COc1cc(/C=C\c2ccc(OC)cc2OC)cc(OC)c1 | inactive | 
COc1ccc2c(c1)C(=NO)c1cc(OC)ccc1-2 | inactive | 
COc1cc2c(cc1OC)/C(=C/C#N)NC(C)(C)C2 | inactive | 
O=C(O)Cn1nc(-c2ccccc2)c2ccccc21 | inactive | 
Cc1ccc(S(=O)(=O)CC(=O)Nc2nc3c(C)cccc3s2)cc1 | inconclusive: 6.68% [signal inhibitor] | 
Cc1c2cccc(Sc3ccccc3)c2c2c3c(cccc13)[S+](c1ccccc1)C2 (stereo not drawn) | inactive: -0.194% [at 11.4 µM, scaled: untreated 0%, proteasome inhibitor 100%] | 
Cc1ccc(N2CCN(Cc3nnc(-c4ccccc4F)o3)CC2)c(C)c1 | inconclusive: 17.2% [signal inhibitor] | 
CSc1ccc(/C=C/c2nc3ccccc3n2S(=O)(=O)c2ccc(Br)cc2)cc1 |  | inconclusive: 0.251 µM [signal inhibitor, full curve]
COc1cccc(NC(=O)/C(C#N)=C/c2c(C)n(Cc3ccccc3)c3ccccc23)c1 |  | inconclusive: 3.16 µM [signal inhibitor, full curve, poor fit]
